According to PubChem BioAssay AID624417 (National Center for Advancing Translational Sciences (NCATS), 2012):
The whole screen tested about 410,000 compounds, of which about 6,400 (1.6%) were called active. Inconclusive means that the source gave no clear call. Such entries were picked first, then a sample of the others. Calls follow the shape of the dose curve; as a rule, active = well fitted inhibition curve with a large enough effect; inconclusive = small, poorly fitted or top-dose-only effect; inactive = no such curve, though single readings can be large or run the other way. No potency is given beside an inconclusive call; the fits are too rough.
% is scaled to controls: 0 for no effect and ±100 for the full control effect; potency is read from the fitted curve at half-maximal effect; tags tell the direction and shape of the fitted curve.
Also: nearly all actives have a fitted effect of over 55% in size.

The molecules below were run against Glucagon-like peptide 1 receptor (Homo sapiens) (UniProt P43220) (assay: qHTS of GLP-1 Receptor Inverse Agonists (Inhibition Mode)). Settings: HEK293 GLP-1R CRE-luciferase, luminescence, 24 h, GLP-1R form is constitutively active; activity change, negative = inhibition: at 38.3 µM (top of the series) unless noted.
Sequence of UniProt P43220 (P43220 whole entry, looked up): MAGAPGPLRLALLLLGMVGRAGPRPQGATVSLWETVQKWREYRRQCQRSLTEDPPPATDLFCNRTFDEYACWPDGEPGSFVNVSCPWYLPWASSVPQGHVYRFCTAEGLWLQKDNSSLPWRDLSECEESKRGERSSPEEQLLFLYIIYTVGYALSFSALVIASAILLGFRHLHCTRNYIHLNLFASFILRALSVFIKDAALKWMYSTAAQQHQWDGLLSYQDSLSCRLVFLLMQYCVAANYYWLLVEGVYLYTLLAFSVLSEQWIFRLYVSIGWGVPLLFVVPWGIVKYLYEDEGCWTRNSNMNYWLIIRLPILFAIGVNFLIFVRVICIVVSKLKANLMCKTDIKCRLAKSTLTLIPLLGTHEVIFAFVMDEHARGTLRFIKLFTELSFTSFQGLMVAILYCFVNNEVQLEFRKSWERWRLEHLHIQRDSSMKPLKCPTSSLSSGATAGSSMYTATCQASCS
How it was run: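 qHTS in 1536-well format: reporter HEK293 cells expressing constitutive GLP-1R activity in DMEM + 10% Nu serum, 24 hr with compounds at 37 deg C, luminescence read after 12 min with detection reagent.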
For COc1ccc(NC(=O)c2ccc(CN3CCN(c4ccccc4)CC3)cc2)cc1, the Potency was inconclusive [inhibitor, single point]. With CCn1c(C(=O)N2CCc3ccccc3C2)cc2oc3ccccc3c21 the Potency was inconclusive [inhibitor, single point]. For COc1cccc(NC(=O)CN(c2ccccc2OC)S(=O)(=O)c2cccs2)c1, the Potency was inconclusive [inhibitor, single point]. In the case of Cc1nn(-c2ccc(N3CCCCC3)nn2)c(C)c1CCC(=O)Nc1cc(F)ccc1F, the Potency is reported as inconclusive [inhibitor, single point]. With Cc1ccc(N(CC(=O)NC2CCCC2)C(=O)c2ccc(C)s2)cc1 the Potency was inconclusive [inhibitor, single point]. With COc1ccccc1-c1cnc(C(O)c2ccc(C(C)(C)C)cc2)[nH]1 (configuration not stated) the Potency was inconclusive [inhibitor, single point]. O=C(c1cc(S(=O)(=O)N2CCCC2)c[nH]1)N1CCN(c2cccc(Cl)c2)CC1 was tested, and the Potency was inconclusive [inhibitor, single point]. In the case of O=C(COc1ccccc1)NC(NC(=S)Nc1ccccc1O)C(Cl)(Cl)Cl (configuration not stated), the Potency is reported as inconclusive [inhibitor, partial curve, poor fit]. With COc1ccccc1-c1cc(NC(C)=O)c2ncc(-c3ccc(F)cc3)n2c1 the Potency was inconclusive [inhibitor, single point]. With CCC(C)NC(=O)c1ccc(CSCc2ccc(Cl)cc2)o1 (configuration not stated) the Potency was inconclusive [inhibitor, partial curve, poor fit]. For CCOc1ccc2nc(N(Cc3cccnc3)C(=O)c3ccco3)sc2c1, the “activity change, negative = inhibition” value was inactive: -3.25%. In the case of Cc1cc(N2CCOCC2)n2ncc(-c3ccccc3Cl)c2n1, the “activity change, negative = inhibition” value is reported as inactive: 55.6%. In the case of CCOc1ccccc1N(CC)C(=O)Cn1ncc2c1-c1ccccc1OC2, the Potency is reported as inconclusive [inhibitor, partial curve, poor fit]. With CCOc1ccc(NC(=O)CSc2nc(-c3ccccc3)c3cc(OCC)ccc3n2)cc1 the “activity change, negative = inhibition” value was inactive: -5.81%. With O=C(NCc1ccccc1Cl)C(=O)NCC(c1ccc2c(c1)OCO2)N1CCOCC1 (configuration not stated) the “activity change, negative = inhibition” value was inactive: -0.74%. For Cc1cc(C)n(-c2nnc(C)n2/N=C/c2ccccc2OCc2ccccc2Cl)n1, the Potency was inconclusive [inhibitor, full curve, poor fit]. In the case of CCc1ccc(C(CNC(=O)c2ccc3c(=O)n(-c4ccccc4F)c(=S)[nH]c3c2)N(C)C)cc1 (configuration not stated), the Potency is reported as inconclusive [inhibitor, partial curve, poor fit]. For Cn1c(CNC(=O)c2ccco2)nnc1SCC(=O)c1ccc(F)cc1, the “activity change, negative = inhibition” value was inactive: 8.82%. For Cc1ccc(N(Cc2ccccc2)C(=O)CN2C(=O)NC3(CCCC3)C2=O)cc1, the Potency was inconclusive [inhibitor, single point]. In the case of Cc1noc(C)c1COc1ccccc1C(=O)N1CCN(S(=O)(=O)c2ccc(C(C)C)cc2)CC1, the Potency is reported as inconclusive [inhibitor, single point]. In the case of Cc1ccc(C)c(S(=O)(=O)N2CCN(C(=O)c3sccc3C)CC2)c1, the Potency is reported as inconclusive [inhibitor, partial curve, poor fit]. Cc1ccc(CNCc2ccc3c(c2)n(C)c(=O)n3C)cc1 was tested, and the “activity change, negative = inhibition” value was inactive: 0.0464%. N#C/C(=N\Nc1ccc(Cl)cc1)C(=O)c1ccccc1 was tested, and the Potency was inconclusive [inhibitor, single point]. For O=C(CCNS(=O)(=O)c1ccc(Br)s1)Nc1ccc(Br)cc1, the Potency was inconclusive [inhibitor, partial curve, poor fit]. For CCCc1cc(NCc2ccccn2)n2nc(C)c(-c3ccccc3)c2n1, the Potency was inconclusive [inhibitor, partial curve, poor fit]. With CC(C)(C)c1ccc(C(=O)N/C(=C/c2cccs2)C(=O)NCc2ccco2)cc1 the Potency was inconclusive [inhibitor, partial curve, poor fit]. In the case of Cc1ccc(C(=O)Nc2ccccc2N2CCCCC2)cc1, the Potency is reported as inconclusive [inhibitor, partial curve, poor fit]. CN1C(=O)/C(=C\c2ccccc2F)Sc2ccc(C(=O)NC3CCN(Cc4ccccc4)CC3)cc21 was tested, and the Potency was inconclusive [inhibitor, partial curve, poor fit]. With Cc1onc(-c2ccccc2)c1C(=O)N1CCN(c2ncccc2C(F)(F)F)CC1 the Potency was inconclusive [inhibitor, single point]. For c1ccc(OCCCCn2cnc3ccccc32)cc1, the “activity change, negative = inhibition” value was inactive: -19.8%. Cc1cc(NC(=O)CCC(=O)N(CC(=O)NC2CCCC2)c2cccc(C)c2C)no1 was tested, and the Potency was inconclusive [inhibitor, single point]. Cc1cccc(NS(=O)(=O)c2ccc(C(=O)NCC3CCCO3)cc2)c1C (configuration not stated) was tested, and the Potency was inconclusive [inhibitor, single point]. For Cc1ccc(NC(=O)C2=C(c3ccccc3)S(=O)(=O)CCS2(=O)=O)cc1, the Potency was inconclusive [inhibitor, single point]. In the case of CCOc1c(Cl)cc(C(=O)NCCN2CCCCC2)cc1Cl, the “activity change, negative = inhibition” value is reported as inactive: 0%. For CC(C)Cn1nc(NC(=O)C(C)(C)C)c2cc3ccccc3nc21, the Potency was inconclusive [inhibitor, single point]. With COc1cccc(NC(=O)c2csc3c2CCCCC3)c1 the Potency was inconclusive [inhibitor, single point]. In the case of COc1ccccc1CNC(=O)CCS(=O)(=O)Cc1ccc(C)cc1, the “activity change, negative = inhibition” value is reported as inactive: -13.6%. CN1CCN(C(=O)c2ccc(COc3cc(Cl)ccc3Cl)o2)CC1 was tested, and the Potency was inconclusive [inhibitor, partial curve]. With CCOC(=O)c1c(NCc2ccccc2)n[nH]c1C the “activity change, negative = inhibition” value was inactive: 25.8%. With Cc1ccc2nc(NC(=O)C3CCCN(S(=O)(=O)c4cccc5nsnc45)C3)sc2c1 (configuration not stated) the Potency was inconclusive [inhibitor, partial curve, poor fit]. In the case of COc1cccc(CNC(=O)Cc2c(C)c3cc4c(C)coc4cc3oc2=O)c1, the “activity change, negative = inhibition” value is reported as inactive: 3.04%. For CC(C)N1C(=S)SC(C)(C)C1NO (configuration not stated), the Potency was inconclusive [inhibitor, partial curve]. For CCCn1nnc(NC(=S)NC(=O)Cc2ccccc2)n1, the Potency was inconclusive [inhibitor, partial curve, poor fit]. For O=C(CSc1nc(-c2ccccc2)cc(C(F)(F)F)n1)NCc1cccs1, the Potency was inconclusive [inhibitor, partial curve, poor fit]. With COc1ccc(NCC(=O)Nc2ccc(C#N)cc2)cc1Cl the Potency was inconclusive [inhibitor, single point]. In the case of O=C(OCc1cn([C@@H]2C[C@H](c3ccc(Cl)cc3)N(Cc3cccs3)C[C@H]2O)nn1)c1ccccc1, the “activity change, negative = inhibition” value is reported as inactive: 18%. For CCOC(=O)C1(Cc2cccc(F)c2)CCN(C(=O)C2CCC2)CC1, the Potency was inconclusive [inhibitor, single point]. For COc1ccc(C(=O)NCc2ccccc2)cc1S(=O)(=O)N1CCCc2ccccc21, the Potency was inconclusive [inhibitor, single point]. Cc1ccc(S(=O)(=O)N2C[C@H]3n4c(=O)ccc(=O)n4C[C@H](OC(=O)NCc4ccccc4F)[C@@]3(O)C2)cc1 was tested, and the Potency was inconclusive [inhibitor, partial curve, poor fit]. Cc1ccc(NC(=O)c2ccc(F)c(S(=O)(=O)NCCc3ccccc3)c2)cc1F was tested, and the Potency was inconclusive [inhibitor, partial curve, poor fit]. For O=C(Nc1ccccc1)C1C(c2ccccc2)C1(Cl)Cl (configuration not stated), the Potency was inconclusive [inhibitor, single point]. CC(C)Oc1cccc(C(=O)C2CCCN(Cc3ccc(Oc4ncccn4)cc3)C2)c1 (configuration not stated) was tested, and the Potency was inconclusive [inhibitor, partial curve, poor fit]. For CCOc1ccc(-n2c(SCC(=O)Nc3ccc(Br)cc3)nc3n[nH]c(C)c3c2=N)cc1, the Potency was inconclusive [inhibitor, single point]. With O=C(Cn1nnc(-c2ccccc2Cl)n1)NCc1ccc2c(c1)OCO2 the Potency was inconclusive [inhibitor, full curve, poor fit]. CCCCc1nc(NCCN2CCOCC2)c(C#N)c2c1COC(C)(C)C2 was tested, and the Potency was inconclusive [inhibitor, single point]. In the case of CCOC(=O)c1cc(CC)sc1NC(=O)CN1CCN(C(=O)c2ccco2)CC1, the Potency is reported as inconclusive [inhibitor, partial curve, poor fit]. CCOC(=O)N(C)c1c(CC)nc2c(OCc3cc(Cl)cc(Cl)c3)cccn12 was tested, and the Potency was inconclusive [inhibitor, single point]. In the case of Cc1cc2cc(CNC(=S)NC3CCCCC3)ccc2[nH]1, the Potency is reported as inconclusive [inhibitor, single point]. For CC(C)(C)OC[C@H](NC(=O)c1[nH]cnc1C(=O)Nc1ccccc1F)C(=O)OC(C)(C)C, the Potency was inconclusive [inhibitor, partial curve, poor fit]. In the case of O=C(CS(=O)(=O)c1nc(-c2ccc(Cl)cc2)cn1-c1ccccc1)Nc1cccc(Cl)c1, the Potency is reported as inconclusive [inhibitor, single point]. In the case of CSc1ccccc1NC(=S)NC1CCCC1, the Potency is reported as inconclusive [inhibitor, single point]. C=CCn1c(=O)c2c3c(sc2n2c(Nc4ccc(OC)cc4)nnc12)CCCC3 was tested, and the Potency was inconclusive [inhibitor, single point].
